Laboratory results from publication PMC4336329 (PLoS ONE, 2015).
Among all 310,000 compounds or so, about 2,200 (0.71%) showed an effect of 50% or more. Effects have a minus sign here. This is one part of the list.

Molecular target: human ether-à-go-go-related gene (hERG) potassium channel (human, UniProt Q12809)
Assay: primary screen, population patch clamp on CHO cells stably expressing hERG

Sequence of human ether-à-go-go-related gene (hERG) potassium channel (Q12809 whole entry, looked up): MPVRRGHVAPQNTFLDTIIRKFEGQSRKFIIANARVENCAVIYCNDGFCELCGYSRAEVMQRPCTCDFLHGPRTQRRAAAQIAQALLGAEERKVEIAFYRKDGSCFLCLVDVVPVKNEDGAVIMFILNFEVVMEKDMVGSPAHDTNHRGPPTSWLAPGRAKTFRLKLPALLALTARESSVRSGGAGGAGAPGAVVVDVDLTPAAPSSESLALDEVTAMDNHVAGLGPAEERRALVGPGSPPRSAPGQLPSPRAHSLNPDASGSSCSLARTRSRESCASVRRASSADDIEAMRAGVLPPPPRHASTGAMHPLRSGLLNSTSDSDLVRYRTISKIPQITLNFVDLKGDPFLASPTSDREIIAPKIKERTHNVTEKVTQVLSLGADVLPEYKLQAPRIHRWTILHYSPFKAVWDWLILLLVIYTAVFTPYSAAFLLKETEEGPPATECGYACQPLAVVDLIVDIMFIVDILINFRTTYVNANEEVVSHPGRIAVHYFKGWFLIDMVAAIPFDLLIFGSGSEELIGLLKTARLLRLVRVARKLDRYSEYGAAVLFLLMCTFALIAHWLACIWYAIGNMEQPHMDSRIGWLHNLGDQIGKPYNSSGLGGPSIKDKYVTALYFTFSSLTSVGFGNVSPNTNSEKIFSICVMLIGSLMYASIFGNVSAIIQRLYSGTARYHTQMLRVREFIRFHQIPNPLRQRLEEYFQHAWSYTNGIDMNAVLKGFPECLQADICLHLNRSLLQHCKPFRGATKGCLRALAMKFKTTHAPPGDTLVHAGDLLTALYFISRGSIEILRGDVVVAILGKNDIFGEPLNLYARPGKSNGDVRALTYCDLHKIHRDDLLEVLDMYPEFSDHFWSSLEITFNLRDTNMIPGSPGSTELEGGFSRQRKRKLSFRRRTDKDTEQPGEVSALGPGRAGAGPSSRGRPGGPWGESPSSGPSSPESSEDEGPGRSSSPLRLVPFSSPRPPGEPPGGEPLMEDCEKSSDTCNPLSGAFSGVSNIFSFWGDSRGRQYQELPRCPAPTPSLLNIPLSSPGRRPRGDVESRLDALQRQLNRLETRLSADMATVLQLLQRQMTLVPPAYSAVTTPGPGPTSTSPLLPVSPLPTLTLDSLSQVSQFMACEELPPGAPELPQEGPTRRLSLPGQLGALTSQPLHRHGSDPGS

| Structure (SMILES) | hERG current change (%, negative = inhibition) at 1uM |
| --- | --- |
| O=C(CSc1ncnc2ccccc12)c1ccco1 | 6.09% |
| CC(=O)CSc1nnc(CN2C(=O)CSc3ccc(C(F)(F)F)cc32)n1C | 7.95% |
| COc1ccc(OCCOC(=O)c2cccs2)cc1 | 17.2% |
| COC(=O)c1ccc(COc2ccccc2/C=N/O)o1 | 10.7% |
| COc1ccccc1N1CCN(Cc2cc(Br)c(O)c3ncccc23)CC1 | 11.2% |
| CCOc1ccc(OCc2ccc(C(=O)NC(C)C)o2)cc1 | 12.3% |
| CCOc1ccc(CN(CCO)CCO)cc1C(=O)OC | 4.8% |
| Cc1ccc(NC(=O)c2ccoc2C)cc1C | 6.59% |
| CCOc1cc(S(=O)(=O)N(CC)CC)ccc1Br | 8.03% |
| Cc1ccc(NC(=O)CN2CCc3cc4c(cc3C2C)OCCCO4)cc1C (stereo not shown) | 13.6% |
| CCOC(=O)c1c(N2CCCCC2)c2ccccc2[nH]c1=O | 15.4% |
| COc1ccc(C(=O)Nc2nc(C)cs2)cc1S(=O)(=O)N1CCCC1 | 10.3% |
| O=C(Nc1cccc(NC(=O)c2ccccc2[N+](=O)[O-])c1)c1ccccc1Cl | 10.6% |
| O=c1[nH]n(-c2ccc(Cl)cc2)c2ncccc12 | 9.95% |
| CC(OC(=O)CCN=C1NS(=O)(=O)c2ccccc21)C(=O)Nc1ccc(F)cc1 (stereo not shown) | 9.8% |
| CCN1CCN(C(=O)c2ccc(Cl)c(S(=O)(=O)N(C)c3ccccc3)c2)CC1 | 2.36% |
| CCOc1ccc(N(CC(=O)NC2CCCCC2)C(=O)CCC(=O)Nc2cc(C)ccn2)cc1 | 14.3% |
| CCS(=O)c1ccccc1C(=O)O (stereo not shown) | 11.3% |
| CN(C)S(=O)(=O)c1ccc(NC(=O)CN2CCCC2c2ccc3c(c2)OCCCO3)cc1 (stereo not shown) | 2.88% |
| C=C(C)CSc1nnc(-c2ccccc2)n1N | 6.63% |
| CC1CCN(S(=O)(=O)c2ccc(C(=O)N(C)C3CCS(=O)(=O)C3)cc2)CC1 (stereo not shown) | 7.79% |
| COc1ccc(OC)c(NC(=O)CSc2sc3c(O)cc(=O)[nH]c3c2C#N)c1 | 2.98% |

| Structure (SMILES) | hERG current change (%, negative = inhibition) at 1uM |
| --- | --- |
| Cc1cccc(CN2CCN(CC(=O)N3CCCC3)C2=O)c1 | 1.37% |
| CCOc1[nH]n(-c2ccc(Cl)cc2)c(=O)c1C=NCC(=O)OC | -13.2% |
| Cc1ccc(C)c(-n2ccnc2SCC(=O)O)c1 | 14.4% |
| COc1ccc(-n2nc(C(=O)NCC(=O)O)c3ccccc3c2=O)cc1 | 20.5% |
| CCOc1ccc(C(=O)NCC(=O)OCC(=O)N2CCCCC2)cc1 | 8.06% |
| CC1Oc2ccccc2N(CC(=O)N2CCCc3ccccc32)C1=O (stereo not shown) | -3.51% |
| O=C(N/N=C/c1cccc(O)c1)c1ccc(NC(=O)C2CCCCC2)cc1 | 21.1% |
| COc1cc(OC)c(-c2noc(C(=O)OC(C)(C)C)c2C(=O)OC(C)(C)C)c(OC)c1 | 11.8% |
| CCc1cc2c(=O)c(-c3nc4ccccc4[nH]3)coc2cc1OC(=O)N1CCOCC1 | 6.98% |
| CN(C)c1nc(N)nc(-c2ccco2)n1 | 11.2% |
| COCCN(Cc1cc2ccc(C)cc2[nH]c1=O)S(=O)(=O)c1ccccc1 | 5.2% |
| COc1ccc(-c2cc(C(=O)N3CCN(c4ccccc4)CC3)no2)cc1 | 15.1% |
| COc1cccc(C(=O)n2c(SC)nc3cc4c(cc32)OCCO4)c1 | -0.453% |
| O=C(NNC1=NS(=O)(=O)c2ccccc21)c1ccc([N+](=O)[O-])cc1 | 2.66% |
| COc1cccc(C2=NOC(C(=O)NC3CCCCC3)C2)c1 (stereo not shown) | -2.8% |
| COc1ccc2nc(NC(=O)CSC(C)C(=O)Nc3cc(C)on3)sc2c1 (stereo not shown) | 6.84% |
| CCOC(=O)C1CCN(C(=O)c2sc3nc(C)nc(N4CCC(C)CC4)c3c2C)CC1 | -1.96% |
| Cc1cc(/C=N/NC(=O)c2cccc(F)c2)c(C)n1-c1ccccc1 | 3.11% |
| CCOc1ccc(CCNc2cc(C)nc3ncnn23)cc1OCC | 3.8% |
| Cc1ccc(CSCC(=O)N(C)CC(=O)Nc2c(Cl)cccc2Cl)cc1 | 0.282% |
| COc1cc(CN2CCNCC2)cc(OC)c1OC.Cl | 15.9% |
| CCC(=O)NC(=S)NNC(=O)c1ccc(OC)cc1 | 10.3% |

| Structure (SMILES) | hERG current change (%, negative = inhibition) at 1uM |
| --- | --- |
| CCOC(=O)N1CCN(C(=O)c2cc3ccc(OC)cc3[nH]2)CC1 | 14.2% |
| O=C(/C=C/c1ccccc1)NC(=S)N1CCSCC1 | 3.37% |
| COc1cc(O)ccc1C(=O)CCc1ccc(O)cc1 | -11.6% |
| CC(=O)c1ccc(O)c(CSC2=NCCS2)c1 | 5.49% |
| O=C(CSc1ncn[nH]1)N1N=C2/C(=C/c3ccccc3)CCCC2C1c1ccccc1 (stereo not shown) | 10.1% |
| Cc1cccc(N2CCN(C(=O)c3cc4ccccc4oc3=O)CC2)c1C | -2.32% |
| Cc1ccc(-c2cc(C)nc3ncnn23)cc1 | 7.99% |
| C#CCOCCOCCOCCNc1nc(N2CCN(C(=O)[C@H](CCC(=O)O)n3cc(C(N)[C@H](C)CC)nn3)CC2)nc(N2CCN(C(=O)[C@H](Cc3cc4ccccc4[nH]3)n3cc(C(N)[C@H](C)CC)nn3)CC2)n1.Cl (stereo partly shown) | 9.3% |
| Cn1cccc1C(=O)NC(=O)COC(=O)CNC(=O)c1ccc(Cl)cc1Cl | 13.9% |
| Cc1cc(=O)n(CC=C(Cl)Cl)c2ccccc12 | 7.7% |
| Cc1c(C(=O)Oc2ccc(F)cc2)sc2ncn(Cc3cccc(F)c3)c(=O)c12 | -0.534% |
| O=C(CN1CCOCC1)N/N=C/c1ccco1 | 15.7% |
| CC(=O)Nc1cc(-c2nn(C)c(=O)c3ccccc23)ccc1N1CCCCC1 | 21.7% |
| COc1cc(N=Nc2c(O)c3ccccc3[nH]c2=O)c(OC)cc1N=Nc1ccccc1 | 14.8% |
| Cc1ccc(CN2CCc3c(OCC(=O)Nc4cccc(C)c4C)cccc3C2=O)cc1 | 8.32% |
| COc1ccc(CCNC(=O)CS(=O)(=O)Cc2nc(-c3ccccc3Cl)oc2C)cc1OC | 8.61% |
| O=C(Nc1c2c(nn1-c1ccc([N+](=O)[O-])cc1)CS(=O)(=O)C2)c1ccccc1F | 4.47% |
| Cc1cc(=O)n(C)c(=O)n1CCCCCOc1cccc([N+](=O)[O-])c1 | -12.4% |
| CCN1C(=S)SC(=O)C1=C1C=C(C)N(Cc2ccco2)C(C)=C1 | 1.56% |
| CC(Oc1cccc(Cl)c1)C(=O)Nc1nc(-c2ccccn2)cs1 (stereo not shown) | 9.93% |
| CC1(C)CC2CC(C)(CN2CC(O)COc2ccccc2)C1.O=C(O)C(=O)O (stereo not shown) | -0.829% |
| O=C(NNC(=O)c1cc(Cl)ccc1O)c1cccc(S(=O)(=O)N2CCOCC2)c1 | 14.2% |

| Structure (SMILES) | hERG current change (%, negative = inhibition) at 1uM |
| --- | --- |
| C=CCNc1ccc(N2C(=O)CCCC2=O)cc1[N+](=O)[O-] | 19.6% |
| COc1ccc(OC)c(CC(=O)Nc2cc(S(=O)(=O)N3CCCCC3)ccc2C)c1 | 2.36% |
| CCCCOc1ccc(/C=C/C(=O)OCC(=O)N2CC(=O)Nc3ccccc32)cc1OCC | 15.7% |
| CCc1nn(CC(=O)NCCCN2CCCC2=O)c(=O)c2cc3sccc3n12 | 3.94% |
| Nc1nccc(/C=C/c2c(F)cccc2Cl)n1 | 5.43% |
| C/C(=N\Nc1ccc(Cl)cc1)c1c(O)cc(C)oc1=O | 8.19% |
| Cc1nn(Cc2ccc(Cl)cc2)c(C)c1NC(=O)C(c1ccccc1)c1ccccc1 | -12.3% |
| O=[N+]([O-])c1ccccc1OCCOCCOc1cccc2cccnc12 | -0.887% |
| CC(C)(C)NC(=O)COC(=O)c1cc(S(=O)(=O)N2CCCCC2)ccc1N1CCOCC1 | 4.54% |
| Cc1oc2ccc(OCc3ccccc3Cl)cc2c1C(=O)O | 0.264% |
| CCCCC(CC)CNC(=O)C1C2C=CC(C2)C1C(=O)O (stereo not shown) | 7.2% |
| C/C(=N\NC(=O)c1cccs1)c1ccc2ccccc2c1 | 15.5% |
| CCn1c(O)c(/C=C2\C=Nc3ccccc32)sc1=Nc1ccccc1 | 14.1% |
| O=C(Nc1ccccc1)c1ccc(S(=O)(=O)N2CCCCC2)cc1 | -23.1% |
| Cc1ccc(-n2c(N)c(C(=O)N3CCOCC3)sc2=S)cc1 | -19.4% |
| O=[N+]([O-])c1cc(-n2cccc2)ccc1N1CCOCC1 | -3.61% |
| CC(C(=O)NC1C(=O)N2C(C(=O)O)=C(CSc3nnnn3C)CSC12)n1cc(Br)cn1 (stereo not shown) | 15.1% |
| Cc1c(/C=N/n2cnnc2)c2ccccc2n1C | 8.91% |
| Cc1cc(C)c2cc(CN(CC3CCCO3)C(=S)NCc3ccco3)c(=O)[nH]c2c1 (stereo not shown) | 4.08% |
| CN(C(=O)CSc1nc(N)c2c3c(sc2n1)CSC(C)(C)C3)c1ccccc1 | -0.518% |
| COc1ccc(-n2c3c(cc(C(=O)NNc4ccccc4)c2=O)C(=O)CC(C)(C)C3)cc1 | 9.11% |
| COCCCNC(=O)Cn1nnc(-c2ccc(NC(=O)c3cccnc3)cc2)n1 | 1.04% |
